# This is one part of the list.
# B1: PX14343H-pdi-506-26-506 (Parabacteroides distasonis) (protein)
# chain: QPTGTMTTDSKLTSKESALALTNSAYLKNTVFNKMTPGWGCNTILLLEYMTGKATSENSQSNYKDFQDLLVSDRSLYIEDWWQDCYAGIANCNLALQKLGEFENLDASLVNGYMAEVKFMRALYYFYLVRIFGDVPKITTVQSELGELQVSRAPVKEIYDEIIIPDLLEAEQSDLAFSDHTGRVSMGAVKALLADVYLTYAGYPLQGGKSYYAESAKRSLEVIKSNEYTLFTDYESLRLPSQNNKGEFIYQVQFSLNKRHNESVRIFLPSRSGISAYDLEYGSLIPTKEFVESFEKGDKRTEEKQYFFTNYKGHPSKFSPGAAELEFMDLNGYYIYKFFDQVAVDNTAKSDLNWSVYRYTDVLLMYAEAQVNADGTPNQQSIDIVNQIRGRAGLAPFKQTNASAFLEEVWDQRYFDLCYENKMWFDMLRTRKIRDDKSGEYVDFIGYKTNWGKVYTETQLLFPIPLSERQANPNLTQNQGY
# Experiments:
# Assay in all cases: glycan array binding signal (z-score within array); higher = stronger binding
# Conditions in all cases: glycan notation: IUPAC condensed, linker removed
# [1] = biological target: Neu5Ac(a2-3)Gal(b1-3)[Fuc(a1-4)]GlcNAc
# In short: (§1)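 From the Consortium for Functional Glycomics database, 3228 arrays were curated, keeping only those whose protein sequence was available. Binding is given as a within-array Z-score averaged across arrays sharing a protein sequence and across linkers. Negative Z-scores can be read as non-binding.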
# [2] = biological target: Neu5Ac(a2-3)Gal(b1-3)[Fuc(a1-4)]GlcNAc(b1-3)Gal(b1-3)[Fuc(a1-4)]GlcNAc
# In short: as §1
# [3] = biological target: Neu5Ac(a2-3)Gal(b1-3)[Fuc(a1-4)]GlcNAc(b1-3)Gal(b1-4)[Fuc(a1-3)]GlcNAc
# In short: as §1
# [4] = biological target: Neu5Ac(a2-3)Gal(b1-3)[GlcNAc(b1-6)]GalNAc
# In short: as §1
# [5] = biological target: Neu5Ac(a2-3)Gal(b1-3)[Neu5Ac(a2-6)]GalNAc
# In short: as §1
# [6] = biological target: Neu5Ac(a2-3)Gal(b1-3)[Neu5Ac(a2-6)]GlcNAc(b1-3)[Fuc(a1-3)[Gal(b1-4)]GlcNAc(b1-6)]Gal(b1-4)Glc
# In short: as §1
# [7] = biological target: Neu5Ac(a2-3)Gal(b1-3)]Neu5Ac(a2-3)Gal(b1-4)]GlcNAc
# In short: as §1
# Neu5Ac(a2-3)Gal(b1-4)Glc = biological target: Neu5Ac(a2-3)Gal(b1-4)Glc
# In short: as §1
# [8] = biological target: Neu5Ac(a2-3)Gal(b1-4)GlcNAc
# In short: as §1
# [9] = biological target: Neu5Ac(a2-3)Gal(b1-4)GlcNAc(b1-2)Man
# In short: as §1
# [10] = biological target: Neu5Ac(a2-3)Gal(b1-4)GlcNAc(b1-2)Man(a1-3)[GlcNAc(b1-4)][Neu5Ac(a2-3)Gal(b1-4)GlcNAc(b1-2)Man(a1-6)]Man(b1-4)GlcNAc(b1-4)GlcNAc
# In short: as §1
# [11] = biological target: Neu5Ac(a2-3)Gal(b1-4)GlcNAc(b1-2)Man(a1-3)[Neu5Ac(a2-3)Gal(b1-4)GlcNAc(b1-2)Man(a1-6)]Man(b1-4)GlcNAc(b1-4)GlcNAc
# In short: as §1
# [12] = biological target: Neu5Ac(a2-3)Gal(b1-4)GlcNAc(b1-2)Man(a1-3)[Neu5Ac(a2-3)Gal(b1-4)GlcNAc(b1-2)Man(a1-6)]Man(b1-4)GlcNAc(b1-4)[Fuc(a1-6)]GlcNAc
# In short: as §1
# [13] = biological target: Neu5Ac(a2-3)Gal(b1-4)GlcNAc(b1-2)Man(a1-3)[Neu5Ac(a2-6)Gal(b1-4)GlcNAc(b1-2)Man(a1-6)]Man(b1-4)GlcNAc(b1-4)GlcNAc
# In short: as §1
# [14] = biological target: Neu5Ac(a2-3)Gal(b1-4)GlcNAc(b1-2)[Neu5Ac(a2-3)Gal(b1-4)GlcNAc(b1-4)]Man(a1-3)[GlcNAc(b1-4)][Neu5Ac(a2-3)Gal(b1-4)GlcNAc(b1-2)[Neu5Ac(a2-3)Gal(b1-4)GlcNAc(b1-6)]Man(a1-6)]Man(b1-4)GlcNAc(b1-4)GlcNAc
# In short: as §1
# [15] = biological target: Neu5Ac(a2-3)Gal(b1-4)GlcNAc(b1-2)[Neu5Ac(a2-3)Gal(b1-4)GlcNAc(b1-4)]Man(a1-3)[GlcNAc(b1-4)][Neu5Ac(a2-3)Gal(b1-4)GlcNAc(b1-4)Man(a1-6)]Man(b1-4)GlcNAc(b1-4)GlcNAc
# In short: as §1
# [16] = biological target: Neu5Ac(a2-3)Gal(b1-4)GlcNAc(b1-2)[Neu5Ac(a2-3)Gal(b1-4)GlcNAc(b1-6)]Man(a1-6)[Neu5Ac(a2-3)Gal(b1-4)GlcNAc(b1-2)Man(a1-3)]Man(b1-4)GlcNAc(b1-4)GlcNAc
# In short: as §1
# [17] = biological target: Neu5Ac(a2-3)Gal(b1-4)GlcNAc(b1-2)[Neu5Ac(a2-3)Gal(b1-4)GlcNAc(b1-6)]Man(a1-6)[Neu5Ac(a2-3)Gal(b1-4)GlcNAc(b1-2)Man(a1-3)][GlcNAc(b1-4)]Man(b1-4)GlcNAc(b1-4)GlcNAc
# In short: as §1
# [18] = biological target: Neu5Ac(a2-3)Gal(b1-4)GlcNAc(b1-3)Gal
# In short: as §1
# [19] = biological target: Neu5Ac(a2-3)Gal(b1-4)GlcNAc(b1-3)Gal(b1-3)GlcNAc
# In short: as §1
# [20] = biological target: Neu5Ac(a2-3)Gal(b1-4)GlcNAc(b1-3)Gal(b1-4)GlcNAc
# In short: as §1
# [21] = biological target: Neu5Ac(a2-3)Gal(b1-4)GlcNAc(b1-3)Gal(b1-4)GlcNAc(b1-2)Man(a1-3)[Neu5Ac(a2-3)Gal(b1-4)GlcNAc(b1-3)Gal(b1-4)GlcNAc(b1-2)Man(a1-6)]Man(b1-4)GlcNAc(b1-4)GlcNAc
# In short: as §1
# [22] = biological target: Neu5Ac(a2-3)Gal(b1-4)GlcNAc(b1-3)Gal(b1-4)GlcNAc(b1-3)Gal(b1-4)GlcNAc
# In short: as §1
# [23] = biological target: Neu5Ac(a2-3)Gal(b1-4)GlcNAc(b1-3)Gal(b1-4)GlcNAc(b1-3)Gal(b1-4)GlcNAc(b1-2)Man(a1-3)[Neu5Ac(a2-3)Gal(b1-4)GlcNAc(b1-3)Gal(b1-4)GlcNAc(b1-3)Gal(b1-4)GlcNAc(b1-2)Man(a1-6)]GalNAc
# In short: as §1
# [24] = biological target: Neu5Ac(a2-3)Gal(b1-4)GlcNAc(b1-3)Gal(b1-4)GlcNAc(b1-3)GalNAc
# In short: as §1
# [25] = biological target: Neu5Ac(a2-3)Gal(b1-4)GlcNAc(b1-3)Gal(b1-4)GlcNAc(b1-3)[Neu5Ac(a2-3)Gal(b1-4)GlcNAc(b1-3)Gal(b1-4)GlcNAc(b1-6)]GalNAc
# In short: as §1
# [26] = biological target: Neu5Ac(a2-3)Gal(b1-4)GlcNAc(b1-3)Gal(b1-4)GlcNAc(b1-6)[Gal(b1-3)]GalNAc
# In short: as §1
# [27] = biological target: Neu5Ac(a2-3)Gal(b1-4)GlcNAc(b1-3)Gal(b1-4)[Fuc(a1-3)]GlcNAc
# In short: as §1
# [28] = biological target: Neu5Ac(a2-3)Gal(b1-4)GlcNAc(b1-3)GalNAc
# In short: as §1
# [29] = biological target: Neu5Ac(a2-3)Gal(b1-4)GlcNAc(b1-3)[Neu5Ac(a2-3)Gal(b1-4)GlcNAc(b1-6)]GalNAc
# In short: as §1
binder,measurement,setting,value
B1,glycan array binding signal (z-score),[1],-0.497
same,glycan array binding signal (z-score),[2],-0.363
same,glycan array binding signal (z-score),[3],-0.239
same,glycan array binding signal (z-score),[4],-0.522
same,glycan array binding signal (z-score),[5],-0.336
same,glycan array binding signal (z-score),[6],-0.271
same,glycan array binding signal (z-score),[7],-0.417
same,glycan array binding signal (z-score),Neu5Ac(a2-3)Gal(b1-4)Glc,-0.335
same,glycan array binding signal (z-score),[8],-0.441
same,glycan array binding signal (z-score),[9],-0.428
same,glycan array binding signal (z-score),[10],-0.339
same,glycan array binding signal (z-score),[11],-0.227
same,glycan array binding signal (z-score),[12],-0.237
same,glycan array binding signal (z-score),[13],4.89
same,glycan array binding signal (z-score),[14],-0.326
same,glycan array binding signal (z-score),[15],-0.423
same,glycan array binding signal (z-score),[16],-0.182
same,glycan array binding signal (z-score),[17],-0.329
same,glycan array binding signal (z-score),[18],-0.347
same,glycan array binding signal (z-score),[19],-0.492
same,glycan array binding signal (z-score),[20],-0.392
same,glycan array binding signal (z-score),[21],-0.03
same,glycan array binding signal (z-score),[22],-0.404
same,glycan array binding signal (z-score),[23],0.107
same,glycan array binding signal (z-score),[24],-0.334
same,glycan array binding signal (z-score),[25],-0.24
same,glycan array binding signal (z-score),[26],-0.344
same,glycan array binding signal (z-score),[27],-0.38
same,glycan array binding signal (z-score),[28],-0.257
same,glycan array binding signal (z-score),[29],-0.272

# From the supplement of paper PMC8728848
